In publication PMC12136788:
This is one part of the list.

B1: chr4:128759998:128759999:+_ENSMUSG00000028793_ENSMUST00000168461|mus_hu|motif|central (ssRNA)
RNA: GGGAGUUCUACAGUCCGACGAUCUGCACCAAGACUGGCUGUGUCUUUGGGGAAAAUUUCCUUUUGGACAUCGGCUUGAACUUCGGACCUGCUAUAUUUUCCCUUGCCACUGGAGAGAAUGCCGCCACUCAGCGUGCCCCCUGACAACAGAGGAUUGAGCAUCA
B2: chr4:25749455:25749456:-_ENSG00000091490_ENST00000264868|hu_hu|hu_hu_hu_mus_False|18_68 (ssRNA)
RNA: GGGAGUUCUACAGUCCGACGAUCGCACUAUGACCUCUAGAAAAAUCCACAGGGGGAAAAAAUGUAAACCAAUUUACAAUGUUAUCGCCUUCCCUGUGUGUGGAGUGUUUGUCUCAAUAUUUCAAGGAGCUGCUGGAUUUGGGACAACAGAGGAUUGAGCAUCA
B3: chr2:158593201:158593202:-_ENSG00000115170_ENST00000434821|hu_mus|FALSE|FALSE (ssRNA)
RNA: GGGAGUUCUACAGUCCGACGAUCUGAAAUCUUUGCUUCUAAAUCAGUAAUAUAUCGGGUGGUGUUGCAUGGGUAAUGGCUAAAUAUGUUCUGCAUACGAACUGAAAAGAAAGUUACAGUCUACACACAUUUAAAAAAAAAAAUCAACAGAGGAUUGAGCAUCA
B4: chr2:198351390:198351391:-_ENSG00000144381_ENST00000345042|hu_hu|hu_hu_hu_mus_False|18_68 (ssRNA)
RNA: GGGAGUUCUACAGUCCGACGAUCUCAUUCCCACCCUCCACAGAAAGGCUGCUUCUGAACUCUCAUGGUGGUGGCAAGCGCUACAGUCCUGAUGCUCACAGAACAGUAGAGAUGCCUCCUCAGUGAUAGUUGAAAGCAGGACACCAACAGAGGAUUGAGCAUCA
B5: chrX:71549400:71549401:+_ENSMUSG00000019087_ENSMUST00000019231|mus_hu|mus_mus_mus_hu_False|28_78 (ssRNA)
RNA: GGGAGUUCUACAGUCCGACGAUCGCAGUAGGAAGAGGGAAGCUCUUCAGUCCAGUGGUCACAAAACUGGGAAAGCAACAACACGGACACCGUCCCACCCUCAACCCUCUCAGGUGUACAGGGUCACACAAUCUGGGUCAAAGACAACAGAGGAUUGAGCAUCA
B6: 56890377_56890497_5338_3pUTR_ENSMUSG00000055296_ENSMUST00000068792|mouse|control|control (ssRNA)
RNA: GGGAGUUCUACAGUCCGACGAUCGUCUCAUGGUGGGCAGGGGCACGAUUCUGCCAGCUGAAGGUCGUUUACCUUUGGAAUCCGAGGGUCUGCUGAGAGCCCUGAGGGGGGUGGAGGCUGCUGCUGAUUCCUGCUGCUGCGUGUCAACAGAGGAUUGAGCAUCA
B7: 108931087_108931207_2860_3pUTR_ENSMUSG00000033623_ENSMUST00000046975|mouse|control|control (ssRNA)
RNA: GGGAGUUCUACAGUCCGACGAUCAGCCAUACUAAGUUUGAUCUGAUCUGUAAAUUAACUUUACUUGAAUUUGGAGGUUUGUAACUGCUUAAUUUCACCACAUGGGAAAAUACCUAAGUUCUAAUGUAACUGCAUUGUGAGAACCAACAGAGGAUUGAGCAUCA
B8: chr10:33190432:33190433:-_ENSG00000150093_ENST00000302278|hu_hu|FALSE|FALSE (ssRNA)
RNA: GGGAGUUCUACAGUCCGACGAUCUACAUUUUCAAAACCUGCACAUGAGUAAAACCAUGGCAAUAUUGCCCUAAAGCUACCUAACUGUGACUAUGGAAAUUGCUACUUUGCAUUCAGUGUUGUGGGAUUUGCACGGGCAGUACUCAACAGAGGAUUGAGCAUCA
B9: chr11:103733960:103733961:-_ENSMUSG00000034187_ENSMUST00000103075|mus_mus|motif|central (ssRNA)
RNA: GGGAGUUCUACAGUCCGACGAUCCAUUUUAACUUCCAGUCUUCCGGGUCGAAGGAGAGCUUCGUCUAUCAAAUCUGGUCGGUUGGUCAUUCCGAUAACGAGGAUGUUGUUCAGCUGCUCAACGCCAUCGAUCUUGGACAGCAGCAACAGAGGAUUGAGCAUCA
B10: chr11:46405157:46405158:+_ENSG00000110492_ENST00000395566|hu_hu|hu_hu_hu_mus_False|1_78 (ssRNA)
RNA: GGGAGUUCUACAGUCCGACGAUCCCCUCCCCACUUUGGGCACUUGGUGUGGGCGUGAAGGCAGGGCCGUGAUUGACAGAGCUGACAGGAAGACAAAAGGCACUGGUGGGUUAUAUCUUGGGCCUGUGGGAGAGGAGGCGUGGGCAACAGAGGAUUGAGCAUCA
B11: 74120724_74131215_1021_CDS_ENSG00000077809_ENST00000416070|human|control|control (ssRNA)
RNA: GGGAGUUCUACAGUCCGACGAUCUCCUUGAAUGUUAUAUUGAUAAUAAUCAGGAUCUUCUGAUUCUUCCUUUACUGUCACAGCUGCCAUUUCCAGGGAAAUGCCAGAAUCUUCUGUGGGUUCAGUUUUCACUUUGAUGGGGCCCAACAGAGGAUUGAGCAUCA
B12: chr3:10015032:10015033:+_ENSMUSG00000027533_ENSMUST00000029046|mus_mus|mus_mus_mus_hu_True|28_28 (ssRNA)
RNA: GGGAGUUCUACAGUCCGACGAUCGUUUUUACCAUCACAAGUGAUGAUACAAUCUGGCUUGGCCAUUGCGCCCAUUUUUCGCAAAGCUAUUCCCACUCCUAGCUCCUUCAUGUACUCAUCAAAGCCUUUGCUGUCCACCAGGCGCAACAGAGGAUUGAGCAUCA
B13: chr4:148551591:148551592:-_ENSMUSG00000063077_ENSMUST00000060537|mus_hu|mus_mus_mus_hu_False|48_48 (ssRNA)
RNA: GGGAGUUCUACAGUCCGACGAUCACCUGACAAAAUUAAAUAUCCCUGUAAAUUAGACAAUAAGCAGCAGGCAACAAAGUCUUUGCUUUGAAAUAUGUGCCAGGAAAAGUCAUCUUGUUUUUAGAUCUCAAGAGACAGUUCACACAACAGAGGAUUGAGCAUCA
B14: chr5:23655024:23655025:+_ENSMUSG00000028986_ENSMUST00000030841|mus_mus|motif|central (ssRNA)
RNA: GGGAGUUCUACAGUCCGACGAUCAUUGUAGCAAUCCAUUCGCUUUAUGGGGAAAAGCUGAGAACCUCCCAAAAUGUAUACGGCAUUGUCCCAAAACACACAUGCUGCAUCUCUUCGUUUUUCAAAGGGGCAGCGAAUGUCUGUCAACAGAGGAUUGAGCAUCA
B15: 87861455_87862032_296_3pUTR_ENSMUSG00000018379_ENSMUST00000079866|mouse|control|control (ssRNA)
RNA: GGGAGUUCUACAGUCCGACGAUCAGUCGUAGCCGUCGCGACCGUACACCGCAUCUUCCGCGUCUCGCGGGUCCUCGAACUCAACGAAGGCGAAGGGCGGUCCCCCGCGGCGGUUCUUCAGGUCGAUGUCGCGGAUGGCGCCGUCAACAGAGGAUUGAGCAUCA
B16: chr2:5814250:5814251:-_ENSMUSG00000025816_ENSMUST00000102981|mus_hu|mus_mus_mus_hu_True|58_68 (ssRNA)
RNA: GGGAGUUCUACAGUCCGACGAUCUUCCUUUCCGGUUUCUGAAUUUCUGGUAGAACUGCACAGAAUGGUUUAAUAACUUCUAAAAACUUGAUGCCCAUGGCUGCUGCUGGGGAGGCCCAGGGGGAAACCGCGGCCUCGGCGCUGCAACAGAGGAUUGAGCAUCA
B17: chr8:77776764:77776765:+_ENSG00000091656_ENST00000521891|hu_hu|FALSE|FALSE (ssRNA)
RNA: GGGAGUUCUACAGUCCGACGAUCUUUAAGCACGGGAUCCUGUCUUCACUCCUACACACUGAACAUAUCCAUUCGGAUGCUAUUGAAAUUACCAUCUAGGCCAGAAGCAGGCUUAGCCUUCACUUCCAAAGAAUUAUCUAAGUCCAACAGAGGAUUGAGCAUCA
B18: 38862610_38862730_1087_CDS_ENSG00000157540_ENST00000338785|human|control|control (ssRNA)
RNA: GGGAGUUCUACAGUCCGACGAUCAACUAUCUUGAUUGCACUGCGUUUGGGGUUACAAAGAAGGAUAUUUUCAGGUUUUAGAUCACAGUGAAUGAUACUAAGUUCUGGAGUCGCAAGGAAAAGCAGUGCAGUGCACAUCUGUUGCAACAGAGGAUUGAGCAUCA
B19: 72865225_72873886_3810_CDS_ENSG00000009954_ENST00000339594|human|control|control (ssRNA)
RNA: GGGAGUUCUACAGUCCGACGAUCCUUGAUACAGGCAUCAAGCAUCCCAAGCAGCACGUGCAUCCUGGAGAAAGUCUGAGCUUCCCGGAUUGCUGUCUUCCAUUUCUCCAGUGCAGAUGCAACCUUUGCUUCCUCUACCAUUUUCAACAGAGGAUUGAGCAUCA
B20: chr2:179763710:179763711:+_ENSMUSG00000039108_ENSMUST00000058764|mus_hu|FALSE|FALSE (ssRNA)
RNA: GGGAGUUCUACAGUCCGACGAUCCUGCUGUGGCUCUGAGGACAAGUCAAGCUCUGAAACGGGCUGUGGAGAUGGAGAAGAGCUAGGGCUGGAAGCAGCGGCUGAGGCUGGAGGGCUUACCAACUUCUCUAGACCCAGGGAGGCCAACAGAGGAUUGAGCAUCA
B21: chr21:34877999:34878000:-_ENSG00000159131_ENST00000381815|hu_mus|FALSE|FALSE (ssRNA)
RNA: GGGAGUUCUACAGUCCGACGAUCGUCAACUGCAUUGUCAAACUCAACACGAUUUUUAUAUAAUUUGUGAUUAAUUACCCUGGUGGGAAUACCAGCUCGCUCAGCUCGGUCUAAGCCGGCUACGGCGGCUUUGUUGGAGAUGACCAACAGAGGAUUGAGCAUCA
B22: 125006376_125006618_7455_CDS_ENSMUSG00000014444_ENSMUST00000067252|mouse|control|control (ssRNA)
RNA: GGGAGUUCUACAGUCCGACGAUCUUGCUCCCUCCGCAGCUGGAUGCGCACACCAAGGUAGUCCUCUUCCUCAUCUGGCUGCAGCUGCUUCACAGGGUUGGCUUCAGGCCCAUUGGGAGCACGAAUGUACUUGGGGAAGAGAUGCAACAGAGGAUUGAGCAUCA

molecular target: T1, UNK ZnF1-3 (human, UniProt Q9C0B0 31-174); assay: nsRBNS (natural sequence RNA bind-n-seq); RBNS binding buffer (assumed for nsRBNS): 25 mM Tris pH 7.5, 150 mM KCl, 3 mM MgCl2, 0.01% Triton X-100, 500 ug/ml BSA, 20 U/ml SUPERase-In, 4 C; UNK is unkempt and MSI1 is Musashi-1; names of the RNAs are library labels; protein concentration not given here; high values mean tight binding
T1 sequence: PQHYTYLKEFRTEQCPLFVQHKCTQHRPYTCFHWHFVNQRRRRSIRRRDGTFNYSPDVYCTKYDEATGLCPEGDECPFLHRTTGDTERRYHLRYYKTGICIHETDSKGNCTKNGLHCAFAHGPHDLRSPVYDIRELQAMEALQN

| Binder | binding signal |
| --- | --- |
| B1 | 1.03 enrichment R |
| B2 | 1.22 enrichment R |
| B3 | 1.57 enrichment R |
| B4 | 0.954 enrichment R |
| B5 | 1.5 enrichment R |
| B6 | 1.28 enrichment R |
| B7 | 1.78 enrichment R |
| B8 | 0.86 enrichment R |
| B9 | 1.26 enrichment R |
| B10 | 2.01 enrichment R |
| B11 | 0.531 enrichment R |
| B12 | 0.637 enrichment R |
| B13 | 1.07 enrichment R |
| B14 | 0.974 enrichment R |
| B15 | 0.206 enrichment R |
| B16 | 1.4 enrichment R |
| B17 | 0.82 enrichment R |
| B18 | 0.899 enrichment R |
| B19 | 0.701 enrichment R |
| B20 | 1.55 enrichment R |
| B21 | 1.5 enrichment R |
| B22 | 0.679 enrichment R |
